Measured values as given in PubChem BioAssay AID1479 (National Center for Advancing Translational Sciences (NCATS), 2009).
Among all 280,000 compounds or so, about 820 (0.29%) were called active. Inconclusive results, whose numbers are uncertain, are shown with a selection of clear calls. The call rests on the fitted dose curve; in most records, active means well fitted curve in either direction with a large enough effect; inconclusive means small, poorly fitted or top-dose-only effect; inactive means flat fitted curve, though single readings scatter. No potency is given beside an inconclusive call; the fits are too rough.
On the % scale 0 is the no-effect control and ±100 the full control effect; potency means the concentration at half of the fitted maximal effect; tags describe the fitted curve by direction and shape or compound fluorescence and quenching.

Assay: Total Fluorescence Counterscreen for Inhibitors of the Interaction of Thyroid Hormone Receptor and Steroid Receptor Coregulator 2
Conditions: TRb/SRC2 Texas Red total fluorescence interference; series mostly up to 106 µM
Outline: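 Human TRβ ligand-binding domain (0.6 uM) and Texas Red SRC2 peptide (20 nM) in Tris buffer with 1 uM T3 and 5% DMSO were incubated with pinned compound for 5 hr at ambient temperature. Total fluorescence was computed as S + 2P (555/632 nm).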
For `CCCCN(CC)C(=O)c1cc2c(=O)n3cccc(C)c3nc2n1C`, the Potency was “inactive”. For `CCOC(=O)C1CCCN(C(=O)c2csc(-c3ccc4c(c3)CCO4)n2)C1` (configuration not stated), the Potency was “inactive”. For `COc1ccc(OC[C@@H](CO)OC)cc1`, the fluorescence change, negative = quenching was inactive: 0.818% [at 11.2 µM]. For `CCOc1ccccc1NC(=O)C(OC(=O)c1ccc(O)cc1)c1ccccc1` (configuration not stated), the Potency was “inactive”. In the case of `Cc1cc(C)c2oc(C(=O)Nc3ccc(S(=O)(=O)N4CCCCC4)cc3)cc(=O)c2c1`, the Potency is reported as inconclusive [falling, full curve, poor fit]. With `CC(=O)Nc1ccc(S(=O)(=O)N(C)CC(=O)OCC(=O)NC(C)C23CC4CC(CC(C4)C2)C3)cc1` (configuration not stated) the Potency was inconclusive [falling, full curve, poor fit]. In the case of `Cn1cc([N+](=O)[O-])c(C(=O)Nc2cc(Oc3ccccc3)cc([N+](=O)[O-])c2)n1`, the Potency is reported as inconclusive [quencher, partial curve]. For `COc1cccc(-n2c(=O)c3c4c(sc3n(Cc3ccc(C)cc3)c2=O)CCCC4)c1`, the Potency was inconclusive [falling, full curve, poor fit]. With `CSCC[C@H](NC(=O)[C@H](CC(C)C)NC(=O)CNC(=O)[C@H](Cc1ccccc1)NC(=O)[C@H](Cc1ccccc1)NC(=O)[C@H](CCC(N)=O)NC(=O)[C@H](CCC(N)=O)NC(=O)[C@@H]1CCCN1C(=O)[C@H](CCCCN)NC(=O)[C@@H]1CCCN1C(=O)[C@H](CCCN=C(N)N)NC(=O)CCCCC1SCC2NC(=O)NC21)C(N)=O` (some centres not stated) the Potency was “inactive”. With `Cc1c(C)c2c(cc(C)c3c(-c4ccccc4)coc32)oc1=O` the Potency was inconclusive [quencher, partial curve]. For `CN(c1ccc(O)cc1)c1nc(-c2ccccc2)cs1`, the Potency was “inactive”. For `CCOC(=O)CC(NC(=O)Cn1nnc(-c2ccc(C(F)(F)F)cc2)n1)c1ccc(OC)cc1` (configuration not stated), the Potency was inconclusive [quencher, full curve]. In the case of `Cc1ccc(C(=O)C(NC(=O)c2ccco2)Nc2sc3c(c2C(N)=O)CCCC3)cc1` (configuration not stated), the Potency is reported as “inactive”. In the case of `CCc1ccccc1NC(=O)Cn1nnc(C(=O)NCc2ccccc2Cl)c1N`, the Potency is reported as inconclusive [falling, full curve, poor fit]. In the case of `CCc1cc(=O)oc2cc(C)c(CN3CCCC3)c(O)c12`, the Potency is reported as inconclusive [quencher, partial curve]. In the case of `Cn1cc(S(=O)(=O)c2cccc(Cl)c2)c(=O)c2cc(F)c(N3CCN(c4ccc(F)cc4)CC3)cc21`, the Potency is reported as inconclusive [quencher, full curve]. With `O=C(NCC1CCCO1)c1coc2nc3ccccc3nc12` (configuration not stated) the Potency was “inactive”. For `Cn1c(SCC(=O)N/N=C/C=C/c2ccco2)nc2ccccc21`, the Potency was “inactive”. In the case of `COc1ccc(S(=O)(=O)n2nc(-c3ccco3)nc2NCc2ccc(N(C)C)cc2)cc1`, the Potency is reported as inconclusive [falling, full curve, poor fit]. For `CCC1CN(C(=O)NCc2ccc(C)cc2)c2cc(Cl)ccc2O1` (configuration not stated), the Potency was inconclusive [falling, full curve, poor fit]. With `Cc1ccc(S(=O)(=O)Nc2cccc3ncccc23)s1` the Potency was “inactive”. With `C/C=C\C1=C(CO)C(=O)[C@@H]2OC2C1=O` (some centres not stated) the Potency was inconclusive [falling, partial curve, poor fit]. In the case of `O=C(NC(NC(=S)Nc1ccc(F)c([N+](=O)[O-])c1)C(Cl)(Cl)Cl)C(c1ccccc1)c1ccccc1` (configuration not stated), the Potency is reported as inconclusive [falling, partial curve, poor fit]. With `COc1ccc(CCNC(=O)c2ccc3c(=O)n(Cc4ccco4)c(=S)[nH]c3c2)cc1OC` the Potency was inconclusive [falling, full curve, poor fit]. In the case of `C/C=C(/CC[C@@H](C)[C@H]1CCC2C3=CC[C@H]4[C@H](C)[C@@H](O)CC[C@]4(C)C3CC[C@@]21C)C(C)C` (some centres not stated), the Potency is reported as inconclusive [falling, full curve, poor fit]. With `CC(C)c1ccc(NC(=O)c2cc(S(=O)(=O)N3CCCCC3)cn2C)cc1` the Potency was inconclusive [falling, partial curve, poor fit]. For `O=C(c1noc2c1CCCCC2)N1CCN(c2cccc(C(F)(F)F)c2)CC1`, the Potency was inconclusive [quencher, full curve]. In the case of `CN1CCN(C(=O)Cn2c(-c3cccs3)cc3cc(Cl)ccc32)CC1`, the Potency is reported as active: 112 µM [quencher]. In the case of `Cc1ccc(Cl)cc1N1CCN(C(=O)C2CCN(S(=O)(=O)c3cccc4nonc34)CC2)CC1`, the Potency is reported as active: 7.94 µM [quencher]. In the case of `Cc1ccccc1OC(=O)CSc1nnc(-c2ccc3c(c2)OCO3)o1`, the Potency is reported as “inactive”. For `COc1ccc(CNC(=O)C2CCCN(C(=O)N3CCOc4ccccc43)C2)cc1` (configuration not stated), the Potency was inconclusive [falling, partial curve, poor fit]. With `O=C(CCCn1c(=O)c2ccccc2n(CC(=O)Nc2cccc(C(F)(F)F)c2)c1=O)NCc1ccc2c(c1)OCO2` the Potency was inconclusive [falling, full curve, poor fit]. In the case of `CCOc1ccc(-c2cc3c(=O)n(Cc4nc(-c5ccc(OC(C)C)cc5)oc4C)ccn3n2)cc1Cl`, the Potency is reported as inconclusive [falling, full curve, poor fit]. For `CCc1cc2c(-c3ccccc3)cc(=O)oc2c2c1OCN(Cc1ccc(F)cc1)C2`, the Potency was inconclusive [falling, partial curve, poor fit]. With `CCOC(=O)c1ccc(N2C(=O)c3n[nH]c(-c4ccco4)c3C2c2ccc([N+](=O)[O-])cc2)cc1` (configuration not stated) the Potency was “inactive”. With `CC(=O)[C@H]1[C@H](c2cccc(Cl)c2)C(C#N)(C#N)[C@@H]2c3ccccc3C=CN21` the Potency was inconclusive [quencher, full curve]. For `COc1ccc2sc(/C=C/c3ccccc3O)[n+](C)c2c1`, the Potency was inconclusive [fluorescent, partial curve]. With `CC(NC(=O)c1ccc2c(c1)N(Cc1ccc(Cl)cc1)C(=O)c1ccccc1S2=O)c1ccccc1` (configuration not stated) the Potency was inconclusive [falling, full curve, poor fit]. In the case of `CC(C)NC(=O)C1CCCN(c2ncnc3c2nc2n3CCCCC2)C1` (configuration not stated), the Potency is reported as inconclusive [quencher, full curve]. With `CC(C)Cn1c(=O)c2ccccc2n2c(CCC(=O)NCc3ccc(Cl)cc3)nnc12` the Potency was inconclusive [quencher, full curve]. For `COC(=O)CSc1ccc(S(=O)(=O)N2CCCCCC2)cc1[N+](=O)[O-]`, the Potency was “inactive”. With `C/C=C(\C=C\[C@@H](C)C/C=C/CC/C=C/C=C\C[C@@H](OC)/C(C)=C\C=C(C)C)CC(=O)O` the Potency was inconclusive [falling, full curve, poor fit]. For `COc1ccc(-n2c(C)nc3cc(C(=O)NC4CCCCCC4)ccc32)cc1`, the Potency was inconclusive [quencher, partial curve]. With `O=C1CSC(=S)N1c1cccnc1` the Potency was “inactive”. With `COc1cc(CN(C(=S)NCC(=O)NC2CC2)C2CCCC2)cc(OC)c1OC` the Potency was active: 0.0891 µM [quencher]. For `CCc1nn(CC(=O)N2CCN(c3cccc(C)c3)C(C)C2)c(=O)c2cc3sccc3n12` (configuration not stated), the Potency was “inactive”. With `CCOC(=O)N1CCc2c(sc(NCc3cc(OC)ccc3OC)c2C(=O)Nc2cc(OC)ccc2OC)C1` the Potency was active: 398 µM [quencher]. In the case of `CCCCCCCC1=Cc2ccccc2C(C(C(C)=O)C(=O)OC)N1C(=O)OC` (configuration not stated), the fluorescence change, negative = quenching is reported as inactive: -2.14% [at 11.2 µM]. In the case of `O=C(Cc1cccs1)Nc1nnc(Cc2ccccc2)s1`, the Potency is reported as inconclusive [quencher, partial curve]. With `CN[C@H]1[C@@H](O[C@@H]2[C@H](O[C@@H]3[C@@H](O)[C@@H](O)[C@@H](N=C(N)N)[C@@H](O)[C@@H]3N=C(N)N)O[C@H](C)[C@@]2(O)C=O)O[C@@H](CO)[C@@H](O)[C@H]1O` the Potency was inconclusive [quencher, full curve]. With `Cn1c(CN2CCOCC2)c(C#N)c2ccccc21` the Potency was “inactive”. In the case of `Cc1nc(-n2nc(C)c(Cc3ccc(Cl)cc3)c2C)sc1C(=O)N1CCC(C)CC1`, the Potency is reported as inconclusive [falling, full curve, poor fit]. With `Cc1cccc(CNC(=O)c2cnc3c(-c4cccc(C)c4)c(C)nn3c2C)c1` the Potency was inconclusive [quencher, full curve]. For `Cc1ccccc1NC(=O)c1cc(C(=O)c2cc(Cl)ccc2O)cn(-c2ccccc2C)c1=O`, the Potency was “inactive”. For `O=C(c1ccccc1Cl)n1nc(-c2ccco2)nc1NCc1cccs1`, the Potency was inconclusive [falling, partial curve, poor fit]. In the case of `O=C(O)C1CN(c2ncccc2[N+](=O)[O-])C1`, the Potency is reported as “inactive”. For `Cc1cc(C)c(S(=O)(=O)n2c([N+](=O)[O-])cnc2C)cc1C`, the Potency was inconclusive [quencher, full curve]. With `CCOc1ccc2nc(Cl)c(C3CC(c4ccc(C)cc4)=NN3C(=O)CCCC(=O)O)cc2c1` (configuration not stated) the Potency was inconclusive [falling, full curve, poor fit]. For `NC(=S)N/N=C/c1c(O)ccc2ccccc12`, the Potency was “inactive”. In the case of `COc1ccc(C2NC(=O)N(C)C3=C2C(=O)N(c2ccccc2)C3)cc1` (configuration not stated), the Potency is reported as inconclusive [quencher, full curve]. For `CCn1cc(S(=O)(=O)c2ccccc2)c(=O)c2cc(F)c(N3CCCCCC3)cc21`, the Potency was inconclusive [quencher, full curve]. For `Cc1ccccc1OCC(=O)Nc1ccc(S(=O)(=O)Nc2ncccn2)cc1`, the Potency was active: 10000 µM [quencher].
